Assay results: PubChem BioAssay AID488969 (Vanderbilt High Throughput Screening Facility, 2010)
Over roughly 110,000 compounds, “z-score” has its median near -0.1; the highest 2% begin near 2. The list shows a part of the results. Calls of active or inactive are those of the source.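 Rule for the calls: active = z-score in the third read window above 3 or below -3; inactive = the rest.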

Each compound was assayed against Metabotropic glutamate receptor 8 (Rattus norvegicus) (UniProt P70579) (assay: mGluR8 Gi/Go-coupled signaling modulation – cell-based, rat, thallium flux, HTS, primary screen (AID 488969)). Conditions: HEK293 rat mGluR8, GIRK (G protein-gated inwardly rectifying potassium channel) thallium flux, FluoZin2; at 10 µM; stronger effect = higher value; submaximal glutamate (EC20) added with thallium.
Chain of UniProt P70579 (P70579 whole entry, looked up): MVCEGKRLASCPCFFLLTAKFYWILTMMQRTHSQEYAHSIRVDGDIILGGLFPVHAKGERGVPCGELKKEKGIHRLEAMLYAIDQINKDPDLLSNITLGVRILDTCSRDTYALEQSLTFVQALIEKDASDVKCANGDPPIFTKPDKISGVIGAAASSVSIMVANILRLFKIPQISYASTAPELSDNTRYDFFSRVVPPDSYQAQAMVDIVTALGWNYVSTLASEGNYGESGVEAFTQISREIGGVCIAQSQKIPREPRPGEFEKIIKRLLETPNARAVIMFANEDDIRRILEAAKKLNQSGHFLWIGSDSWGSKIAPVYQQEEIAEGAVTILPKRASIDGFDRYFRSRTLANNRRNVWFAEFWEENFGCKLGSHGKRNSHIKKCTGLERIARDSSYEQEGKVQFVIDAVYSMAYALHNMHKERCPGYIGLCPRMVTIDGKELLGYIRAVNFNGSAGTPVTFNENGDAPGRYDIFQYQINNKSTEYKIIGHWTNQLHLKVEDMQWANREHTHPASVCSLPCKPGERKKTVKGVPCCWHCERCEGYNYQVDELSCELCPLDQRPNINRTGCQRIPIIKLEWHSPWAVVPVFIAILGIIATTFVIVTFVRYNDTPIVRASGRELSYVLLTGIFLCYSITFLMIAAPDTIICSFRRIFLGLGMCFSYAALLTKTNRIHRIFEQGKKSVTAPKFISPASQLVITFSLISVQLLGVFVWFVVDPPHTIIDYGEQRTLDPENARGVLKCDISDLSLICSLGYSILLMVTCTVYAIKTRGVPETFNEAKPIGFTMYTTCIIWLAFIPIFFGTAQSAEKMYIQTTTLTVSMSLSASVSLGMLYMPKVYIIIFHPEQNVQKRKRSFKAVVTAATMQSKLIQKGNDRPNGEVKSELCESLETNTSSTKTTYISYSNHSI
In the case of Cn1c(=O)[nH]c(=O)c2c1nc(Br)n2CC(O)COc1ccccc1 (stereo not drawn), the z-score is reported as -0.0582. For COC(=O)C1=C(C(=O)OC)SC(=C2C(=S)C(C)(C)N(C(=O)CC(C)C)c3ccccc32)S1, the z-score was -0.622. Compound COCCCN1C(=O)C(O)=C(C(=O)c2ccc(C)o2)C1c1cccc(Br)c1 (stereo not drawn) has a z-score of -1.85. CN(C)S(=O)(=O)N1CCC(C(=O)O)(c2ccccc2)CC1 was tested, and the z-score was -0.117. With COc1cc(/C=N/NC(=O)c2cnccn2)cc(OC)c1OC the z-score was -0.244. Compound O=C(CS(=O)(=O)c1c[nH]c2ccccc12)Nc1ccc2c(c1)OCCO2 has a z-score of 0.777. For COc1ccc(C(=O)Nc2ccc(C)cn2)c(OC)c1, the z-score was -0.429. CCOC(=O)c1ccc(NC2c3ccccc3C(=O)N2c2ccccn2)cc1 (stereo not drawn) was tested, and the z-score was -0.0782. COc1ccc(C(c2nnnn2CCc2ccccc2)N2CCN(C3CCCC3)CC2)cc1OC (stereo not drawn) gave a z-score of -0.433. Work on CCN(CC)c1ccc(/C=N/OC(C)C(=O)Nc2ccc(C)cc2)cc1 (stereo not drawn) yielded a z-score of -0.337. In the case of CCCCN(C)C1=CC2=CC(=C(C#N)C#N)CCC2CC1 (stereo not drawn), the z-score is reported as active: 5.11. With O=C1C(Cl)=C(Nc2ccccc2O)C(=O)N1c1ccccc1 the z-score was 0.0471. With O=C(/C=C/c1ccccc1)CC(O)(c1ccccc1)C(F)(F)C(F)F (stereo not drawn) the z-score was -0.207. In the case of O=C(CNC(=O)c1ccc([N+](=O)[O-])cc1)c1ccccc1, the z-score is reported as -0.124. For CCOc1ccc(Nc2nc(CC(=O)OC)cc(=O)[nH]2)cc1, the z-score was -0.00109. Compound COc1cccc(/C=N/NC(=O)CCn2c3ccccc3c3ccccc32)c1 has a z-score of 0.0557. Work on CCOc1cc(N2CCOCC2)c(OCC)cc1NC(=O)COC(=O)[C@H](Cc1c[nH]c2ccccc12)NC(C)=O yielded a z-score of 0.243. With COc1ccc(Nc2nc(Nc3ccc(OC)cc3)nc(-n3[nH]c(=O)c(C)c3C)n2)cc1 the z-score was -0.186. Work on CC(=O)c1cn(CC(=O)NCc2ccco2)c2ccccc12 yielded a z-score of -0.774. For COCCCNC(=S)NNC(=O)c1ccc2c(c1)OCO2, the z-score was 0.142. For COc1ccc(NC(=O)CSc2nnc(-c3ccccc3)n2N)cc1, the z-score was -0.42. Cc1ccccc1NC(=O)CN1C(=O)NC(C)(c2ccc3c(c2)OCO3)C1=O (stereo not drawn) was tested, and the z-score was 0.0574. Work on COc1ccc(C=NCCC2(O)CC(C)N(C)CC2C)cc1 (stereo not drawn) yielded a z-score of 0.0407. Compound CCOC(=O)c1ccc(NC(=O)C2(c3ccccc3)CCCC2)cc1 has a z-score of 0.405. Work on CCCCc1nc2n[nH]c(N)c2c2c1CSC(C)(C)C2 yielded a z-score of -0.471. Compound COc1ccc(C(C(=O)NC2CCCCC2)N(C(=O)CCl)c2ccccc2Cl)cc1 (stereo not drawn) has a z-score of 0.0511. In the case of CC(=O)Nc1sc(C)c(C)c1C(=O)Nc1ccc(C)cc1, the z-score is reported as -0.207. Fc1ccc(OCc2nc(-c3ccc(Br)o3)no2)c(F)c1 showed a z-score of -0.191. COc1ccc(Cc2c(O)nc(SCC(=O)N3CCCCCC3)[nH]c2=O)cc1 gave a z-score of -0.345. O=C(c1cnc2n(c1=O)CCS2)N1CCN(c2ccc(Cl)c(Cl)c2)CC1 was tested, and the z-score was -0.83. Work on COc1ccc(N(CC(=O)O)S(=O)(=O)c2c(C)n[nH]c2C)cc1 yielded a z-score of -0.105. For CN(C)/C=N/c1nc2ccc3c(c2s1)CCCC3, the z-score was -0.171. Work on NC(=O)c1ccccc1NC(=O)CCN1C(=O)c2ccccc2C1=O yielded a z-score of 0.146. Work on Cc1csc(Sc2nc3c(c(=O)[nH]c(=O)n3C)n2Cc2ccccc2Cl)n1 yielded a z-score of 0.426. Work on CCOC(=O)C(NC(=O)CC)(Nc1nc2c(s1)CCCC2)C(F)(F)F (stereo not drawn) yielded a z-score of -0.0129. In the case of O=C(COC(=O)[C@H](Cc1ccccc1)NC(=O)c1cccs1)Nc1ccccc1C(F)(F)F, the z-score is reported as -0.389. C/C(Cc1ccccc1)=N\NC(=O)CNC(=O)c1ccc(C(C)(C)C)cc1 showed a z-score of -0.163. With Cc1cccc2cc(C(c3nnnn3C(C)(C)C)N3CCN(C(=O)c4ccco4)CC3)c(=O)[nH]c12 (stereo not drawn) the z-score was 0.516. Compound Cc1cc(C(=O)NC(=S)Nc2ccccc2N2CCOCC2)ccc1[N+](=O)[O-] has a z-score of 0.86. Cc1ccc(/C=N\NC(=O)Cn2nnc3ccccc32)o1 gave a z-score of -0.116. Cc1nc(NC2=NCN(C3CCCCC3C)CN2)nc2ccccc12 (stereo not drawn) was tested, and the z-score was -0.214. With COc1cccc(NC(=O)CCSc2ccc3ccccc3n2)c1 the z-score was -0.0656. Cc1cc(C)cc(OCC(=O)Nc2ccc3c(c2)C(=O)c2ccccc2C3=O)c1 gave a z-score of -0.124. In the case of COc1ccc(NC(=O)C2CCC(C(C)(C)C)CC2)cc1S(=O)(=O)N1CCCCC1 (stereo not drawn), the z-score is reported as 0.369. Compound CCc1nc2n[nH]c(N)c2c2c1CCCC2 has a z-score of 0.621. With CC(C)(Oc1ccc(Cl)cc1)C(=O)Nc1ccc2oc(-c3ccncc3)nc2c1 the z-score was 0.196. With O=C(O)C(Cc1c[nH]c2ccccc12)NS(=O)(=O)c1cccc2nsnc12 (stereo not drawn) the z-score was 0.00264. CCOC(=O)c1c(NC2=NS(=O)(=O)c3ccccc32)sc2c1CCCCC2 was tested, and the z-score was -0.637. CC(C)(C)N1C(=O)c2ccccc2NC(=O)N1Cc1ccc(Br)cc1 showed a z-score of -0.274. For CCC(=O)Nc1ccc2c(c1)C(=O)N(C)C2=O, the z-score was -0.189. For C=CCn1c2ccccc2c2nnc(SCC(=O)Nc3c(C)n(C)n(-c4ccccc4)c3=O)nc21, the z-score was -0.52. O=C(CSc1nnc(-c2ccco2)o1)NC(=O)Cc1ccccc1 gave a z-score of -0.213. With COc1ccc(-c2nnc(SCC(=O)c3ccc(C)o3)o2)cc1 the z-score was -0.153. Cc1ccc(-n2nnnc2SCC(=O)c2cc(C)n(-c3cc(C)on3)c2C)c(C)c1 gave a z-score of -1.43. In the case of COC(=O)c1ccc(N/C=C/C(=O)c2ccc(OC)c(OC)c2)cc1, the z-score is reported as 0.868. O=C(COC(=O)C12CC3CC(CC(O)(C3)C1)C2)NC(=O)NCc1ccco1 showed a z-score of -0.0573. In the case of O=C(CSc1nnc2n(C3CCCCC3)c(=O)c3ccccc3n12)OC1CCCCC1, the z-score is reported as -0.124. CCc1ccc(-c2cc(C(=O)Nc3ccc(S(=O)(=O)NC(C)=O)cc3)c3ccccc3n2)cc1 showed a z-score of -0.146. Compound O=C(NCc1ccc(C(F)(F)F)cc1)C1CC(c2ccccc2[N+](=O)[O-])=NO1 (stereo not drawn) has a z-score of -0.239. Cn1c(CCNC(=O)c2ccc(F)cc2)nc2ccccc21 showed a z-score of -0.117. Cc1cccc(N2CC(C(=O)Nc3nnc(SCC(=O)Nc4nccs4)s3)CC2=O)c1 (stereo not drawn) was tested, and the z-score was -0.265. For O=C(NCCCN1CCCCC1)c1ccc2c(=O)n(CCc3ccccc3)c(=O)[nH]c2c1, the z-score was 1.16. CCc1sc(C(=O)Nc2cccc(C(C)=O)c2)cc1C showed a z-score of 0.0168. With CC(O)CN(Cc1cccc(Cl)c1)CC(C)O (stereo not drawn) the z-score was 0.0395. In the case of COc1ccc(NC(=O)c2cc(-c3ccccc3)oc2C)cc1, the z-score is reported as -0.319. Compound CC(C)COc1ccc(C(=O)Nc2ccccc2[N+](=O)[O-])cc1 has a z-score of 1.01. In the case of COC(=O)[C@H](CC(C)C)NC(=O)Nc1cccc(Br)c1, the z-score is reported as -0.0767. CCOC(=O)CSc1nc2ccc(S(=O)(=O)N3CCOCC3)cc2[nH]1 showed a z-score of 0.137. With CCOc1ccc(C(=O)Cc2ccc3oc(C(=O)O)cc3c2)c(O)c1 the z-score was -0.52. Compound c1ccc(CN2c3ccccc3-c3nc4ccccc4n3C2c2ccccn2)cc1 (stereo not drawn) has a z-score of -0.213. Compound O=c1cc(CSc2nnc(Nc3ccccc3)s2)nc2sccn12 has a z-score of -0.432. COc1ccc(C(=O)N2CCc3ccccc32)cc1 gave a z-score of -0.92. Work on CCOC(=O)Cc1nnn(CC(=O)OCC)n1 yielded a z-score of -0.295. Work on Cc1nn(-c2ccccc2)c2c1C(c1ccc(Cl)cc1)N(c1ccccc1)C(=O)N2 (stereo not drawn) yielded a z-score of -0.561. O=C(O)c1ccc(Cl)c(NC(=O)C2CCCN2S(=O)(=O)c2cccc3nsnc23)c1 (stereo not drawn) showed a z-score of -0.592. NC(=O)c1oc2ccccc2c1NC(=O)c1ccccc1 showed a z-score of -0.575. CCN(CC)S(=O)(=O)c1cccc(NC(=S)NC(=O)/C=C/c2ccc(S(=O)(=O)N3CCOCC3)cc2)c1 showed a z-score of -0.127. For COc1ccc(C(=O)NCCNC(=O)c2cc(OCC(F)(F)F)ccc2OCC(F)(F)F)cc1, the z-score was -0.0999. With CCOc1ccc(/C=N/NC(=O)C(=O)NCc2ccco2)cc1 the z-score was -0.0955. For Cc1ccccc1NC(=O)Cn1nc(-c2ccccc2)nc1-c1ccccc1, the z-score was -0.268. CC(=O)c1coc2c1cc(O)c1ccccc12 gave a z-score of -0.786. Compound CCOC(=O)/C(C#N)=C1/SC(C)C(=O)N1c1ccc(Br)cc1 (stereo not drawn) has a z-score of 0.227. O=C1CCCC/C1=C/Nc1ccc2c(c1)OCO2 showed a z-score of -0.127. CCOc1ccccc1C(=O)NC(C(=O)OCC(=O)Nc1nnc(-c2ccccc2)o1)C(C)C (stereo not drawn) showed a z-score of -1.8. COc1ccc(-c2ccc(-c3noc(-c4cccc(OC)c4)n3)c(OC)n2)cc1 gave a z-score of 0.15. Compound O=C(CC1Sc2ccccc2NC1=O)OCc1cc(=O)oc2cc(O)ccc12 (stereo not drawn) has a z-score of -0.575. In the case of Cc1ccc(Cn2ccc(NC(=O)c3cc(-c4ccc(Br)cc4)on3)n2)cc1, the z-score is reported as -0.182. Compound O=C(Nc1ccc2ccccc2c1)C(c1ccccc1)C1CCCC1 (stereo not drawn) has a z-score of 0.0599. For CCCCNC(=S)NNC(=O)c1csc2ccccc12, the z-score was 0.468. Compound COC(=O)Nc1ccc(Oc2ccccc2)cc1 has a z-score of -0.226. For COc1ccc(S(=O)(=O)N(C)CC(=O)NCc2cccnc2)cc1OC, the z-score was -0.307. O=C(CCN1CCCC1)Nc1ccc(Br)cc1 gave a z-score of -0.142. Compound Cn1cnnc1Sc1nc2c(c(=O)n(C)c(=O)n2C)n1Cc1ccccc1Cl has a z-score of -0.0672. O=C(Nc1ccccc1N1CCCCC1)c1cccs1 gave a z-score of 0.223. Compound CC1CN(C(=O)c2ccccc2C(=O)c2ncc[nH]2)CC(C)O1 (stereo not drawn) has a z-score of -0.287. CC(=O)N1CCN(C(=O)COc2ccc(Br)cc2)CC1 gave a z-score of 0.512. Compound Cc1ccc(S(=O)(=O)NNC(=O)C2CCN(Cc3ccccc3)CC2)cc1 has a z-score of -0.361. Compound CCOc1ccccc1N1CCN(C(=O)Nc2cccc(Cl)c2)CC1 has a z-score of -1.28. Compound COc1cc(OC)c(C2CC(=O)N3CN(C)CSC3=C2C#N)cc1OC (stereo not drawn) has a z-score of -0.561. Work on O=C(Nc1cccc(Cl)c1)N1CCCC1 yielded a z-score of 0.56. Work on CC/C(=N\NC(=O)c1ccoc1C)c1ccc(C)o1 yielded a z-score of -0.0816. For Cn1c(N)c(C(=O)c2ccccc2)c(=O)n(C)c1=O, the z-score was -0.397. Work on COc1ccccc1N1CCN(C(=O)C(C)N(c2ccc(C)cc2)S(C)(=O)=O)CC1 (stereo not drawn) yielded a z-score of -0.377. Compound N/C(=N\OC(=O)CCCOc1ccccc1)c1ccc(Br)cc1 has a z-score of -0.188. For CCCCC(=O)Nc1ccc(C(=O)N2CCN(C)CC2)cc1, the z-score was 0.377. In the case of CCc1c(C)sc(NC(=O)OC)c1C(N)=O, the z-score is reported as 0.111. NC(=O)Nc1ccc(C(=O)OCC(=O)Nc2ccc([N+](=O)[O-])cc2C(F)(F)F)cc1 showed a z-score of -0.192. Work on CCOC(=O)c1cccc(NC(=O)CCn2nnc3ccccc32)c1 yielded a z-score of -0.406.
